# Results reported in the supplement of paper PMC4723716.
# ± gives the uncertainty stated by the source. Whole data set: some 9,900 compounds, median “viability index relative to DMSO control” near 1, cut for the lowest 2% near 0.85. This is one part of the list.
# Test system: Plasmodium falciparum NF54 stage V gametocytes
# Assay: viability index relative to DMSO control (fraction); higher = less gametocyte killing
# Settings: 2.5 µM, library set: Broad Institute DOS, incubation time: 72 h
# Outline: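 Gametocytes (P. falciparum NF54, stage V) were treated with compound at 2.5 µM for 72 hr at 37°C in low oxygen, in serum-free medium at 0.75% gametocytemia and 1.25% hematocrit. Counts of 20–70 µm2 red particles, taken from one field per well after MitoTracker Red CMXRos with saponin, were divided by the plate mean of solvent-only wells. This ratio is the viability index.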
row,SMILES,viability index
1,CC(C)CC#Cc1ccc([C@H]2[C@H]3CN(C(=O)c4cccc(F)c4)CC(=O)N3[C@H]2CO)cc1,0.9541 ± 0.0077
2,C[C@@H]1CN([C@@H](C)CO)C(=O)c2ccccc2-c2ccccc2CO[C@@H]1CN(C)C(=O)Nc1cccc(C(F)(F)F)c1,1.03 ± 0.12
3,COc1ccccc1S(=O)(=O)N[C@H]1C=C[C@@H](CC(=O)N2CCOCC2)O[C@H]1CO,1.09 ± 0.12
4,COc1ccc(-c2cn(CC[C@@H]3CC[C@H](NC(=O)c4cnccn4)[C@@H](CO)O3)nn2)cc1,1.16 ± 0.058
5,C/C=C/c1ccc([C@@H]2[C@@H](CO)N(C(=O)c3cnccn3)C23CN(C(=O)C2CCC2)C3)cc1,1.03 ± 0.013
6,N#Cc1cccc(-c2ccc3c(c2)[C@@H]2[C@@H](CCN2S(=O)(=O)c2ccc(F)cc2)[C@@H](CO)N3)c1,0.855 ± 0.011
7,O=C(C[C@H]1C=C[C@@H](NC(=O)Nc2cccc(F)c2)[C@H](CO)O1)NCC1CCCCC1,0.942 ± 0.015
8,C[C@@H]1CN([C@@H](C)CO)S(=O)(=O)c2ccc(-c3cccc(C#N)c3)cc2O[C@H]1CN(C)C(=O)c1ccccc1,0.967 ± 0.038
9,CCCC(=O)Nc1ccc2c(c1)C(=O)N(C)C[C@H](OC)[C@@H](C)CN(Cc1ccc(F)cc1)[C@@H](C)CO2,1.05 ± 0.066
10,C[C@@H]1CN([C@@H](C)CO)C(=O)c2cc(NS(=O)(=O)c3cccs3)ccc2O[C@@H]1CN(C)S(=O)(=O)c1ccc(Cl)cc1,1.04 ± 0.015
11,CCC(=O)N1[C@H](CO)[C@H](c2ccc(C#CC(C)(C)O)cc2)[C@@H]1CN(C)C(C)=O,1.07 ± 0.064
12,Cc1ccc(S(=O)(=O)N2C[C@@H]3[C@H](c4ccccc42)[C@H](CO)N3Cc2cccnc2)cc1,1.04 ± 0.024
13,Cc1ccccc1-c1ccc([C@H]2[C@H](CO)N3C(=O)CN(C(=O)c4ccncc4)C[C@@H]23)cc1,0.978 ± 0.036
14,CCCNC(=O)Nc1ccc2c(c1)C(=O)N(C)[C@H]1CC[C@H](CC(=O)Nc3cc(F)ccc3F)O[C@@H]1CO2,0.972 ± 0.018
15,C[C@@H](NC(=O)C[C@H]1CC[C@@H]2[C@H](COc3ccc(NS(=O)(=O)c4ccc(Cl)cc4)cc3C(=O)N2C)O1)c1ccccc1,1 ± 0.13
16,Cc1cccc(S(=O)(=O)N[C@H]2CC[C@@H](CCNC(=O)Nc3cc(F)ccc3F)O[C@@H]2CO)c1,1.08 ± 0.038
17,C[C@@H]1CN([C@H](C)CO)C(=O)c2cc(C3=CCCCC3)cnc2O[C@@H]1CN(C)S(=O)(=O)c1cn(C)cn1,1.01 ± 0.019
18,Cc1noc(C)c1NC(=O)Nc1ccc2c(c1)C(=O)N([C@@H](C)CO)C[C@@H](C)[C@@H](CN(C)Cc1ccc3c(c1)OCO3)OCCCC[C@@H](C)O2,1.15 ± 0.058
19,C[C@H](CO)N1C[C@H](C)[C@@H](CN(C)CC2CCCCC2)Oc2ccc(NS(=O)(=O)c3cccs3)cc2CC1=O,0.989 ± 0.099
20,C[C@@H]1CN([C@@H](C)CO)C(=O)CCCn2nncc2CO[C@@H]1CN(C)C(=O)Nc1ccnc(N2CCOCC2)c1,1.055 ± 0.01
21,O=C(CN1CCOCC1)N1[C@H](CO)[C@H]2c3ccccc3NC[C@H]21,1 ± 0.088
22,CO[C@H]1CN(C)C(=O)c2ccc(NC(=O)Nc3cc(F)ccc3F)cc2OC[C@@H](C)N(C(=O)c2ccccn2)C[C@H]1C,1.087 ± 0.0073
23,O=C(C[C@@H]1C[C@H]2c3cc(NC(=O)c4cccnc4)ccc3O[C@H]2[C@H](CO)O1)NCc1cc(F)ccc1F,0.9992 ± 0.0069

row,SMILES,viability index
1,O=C(C[C@@H]1CC[C@H]2[C@@H](COC[C@@H](O)CN2Cc2nccs2)O1)NCc1ccccc1Cl,1.01 ± 0.061
2,COc1ccc(NC(=O)N2C[C@@H]3[C@H](c4ccccc42)[C@H](CO)N3Cc2ccccn2)cc1,0.993 ± 0.11
3,N#C[C@@H]1[C@H](c2ccc(-c3cccc(F)c3)cc2)[C@H](CO)N1C(=O)NC1CCCC1,0.743 ± 0.059
4,O=C(C[C@@H]1CC[C@@H]2[C@H](COC[C@@H](O)CN2S(=O)(=O)c2ccccc2)O1)NCC1CCCCC1,0.979 ± 0.0099
5,C[C@H]1CN([C@@H](C)CO)C(=O)c2c(c3ccccc3n2C)-c2ccccc2CO[C@H]1CN(C)Cc1cccc(C(F)(F)F)c1,0.952 ± 0.02
6,C[C@@H]1CN([C@@H](C)CO)C(=O)c2ccccc2-c2ccccc2CO[C@H]1CN(C)C(=O)CCC(F)(F)F,0.961 ± 0.12
7,O=C1CCCn2cc(nn2)COC[C@H](c2ccccc2)N1,1.06 ± 0.024
8,Cc1noc(C)c1NC(=O)N(C)C[C@H]1OCCCC[C@@H](C)Oc2ccc(NC(=O)Nc3ccc(C(F)(F)F)cc3)cc2C(=O)N([C@H](C)CO)C[C@@H]1C,0.947 ± 0.037
9,CO[C@@H]1CN(C)C(=O)c2cc(NC(=O)NC(C)C)ccc2OC[C@@H](C)N(Cc2ccccc2)C[C@@H]1C,0.939 ± 0.017
10,O=C(C[C@H]1C[C@H]2c3cc(NC(=O)C4CCOCC4)ccc3O[C@H]2[C@@H](CO)O1)NCc1cccnc1,1.01 ± 0.041
11,C[C@H]1CN([C@@H](C)CO)C(=O)c2cc(NS(=O)(=O)c3ccc(F)cc3)ccc2O[C@H]1CN(C)C(=O)Nc1ccccc1,1.02 ± 0.012
12,COc1ccc(-c2ccc([C@H]3[C@H](C#N)N(C(=O)NC(C)C)[C@H]3CO)cc2)cc1,1.02 ± 0.019
13,COc1ccccc1NC(=O)N1C[C@H](O)COC[C@H]2O[C@@H](CC(=O)NCCc3ccncc3)CC[C@@H]21,1.14 ± 0.082
14,O=C(Nc1cccc(Cl)c1)N[C@H]1CC[C@H](CCn2cc(Cc3ccccc3)nn2)O[C@H]1CO,1.14 ± 0.068
15,C[C@H]1CN([C@@H](C)CO)C(=O)c2cccc(NC(=O)c3nc4ccccc4s3)c2O[C@@H]1CN(C)C(=O)Nc1ccc2c(c1)OCO2,0.944 ± 0.015
16,O=C1NCCOCc2cnnn2CC[C@@H]1Cc1ccc(F)cc1,1.07 ± 0.042
17,COc1ccccc1CNC(=O)C[C@@H]1CC[C@@H]2[C@H](COC[C@@H](O)CN2Cc2ccc3c(c2)OCO3)O1,1.088 ± 0.0018
18,Cc1ccc(S(=O)(=O)Nc2ccc3c(c2)C(=O)N(C)[C@@H]2CC[C@H](CC(=O)NCCc4ccncc4)O[C@@H]2CO3)cc1,0.921 ± 0.019
19,CN1C(=O)c2cc(NC(=O)c3ccc4c(c3)OCO4)ccc2OC[C@@H]2O[C@@H](CC(=O)O)CC[C@H]21,1.1346 ± 0.00065
20,COc1ccc(-c2ccc3c(c2)[C@H]2[C@H](CCN2Cc2cncnc2)[C@H](CO)N3)cc1,1.07 ± 0.022
21,O=C(C[C@H]1CC[C@@H]2[C@H](COC[C@@H](O)CN2C(=O)c2ccncc2)O1)NCc1cc(F)cc(F)c1,1.06 ± 0.056
22,Cc1noc(C)c1NC(=O)Nc1ccc2c(c1)C(=O)N([C@H](C)CO)C[C@H](C)[C@H](CN(C)Cc1ccc3c(c1)OCO3)OCCCC[C@H](C)O2,1.15 ± 0.15
23,CCC(=O)N1[C@H](CO)[C@H](c2ccccc2)C12CN(C(=O)Nc1ccccc1F)C2,1.07 ± 0.071

row,SMILES,viability index
1,C[C@@H]1CN([C@@H](C)CO)C(=O)c2cccc(NC(=O)Nc3ccc(F)cc3)c2O[C@H]1CN(C)S(=O)(=O)c1ccc(Cl)cc1,0.976 ± 0.09
2,C[C@H](CO)N1C[C@H](C)[C@@H](CN(C)C(=O)Nc2ccc3c(c2)OCO3)Oc2c(NC(=O)c3nc4ccccc4s3)cccc2C1=O,1.01 ± 0.041
3,COc1ccc(S(=O)(=O)Nc2ccc3c(c2)CC(=O)N([C@@H](C)CO)C[C@@H](C)[C@H](CN(C)Cc2ccc(C(=O)Nc4ccccc4N)cc2)O3)cc1,0.836 ± 0.077
4,CC(C)NC(=O)N(C)C[C@H]1Oc2ccc(NC(=O)c3ccncc3)cc2C(=O)N([C@H](C)CO)C[C@H]1C,1.06 ± 0.032
5,CO[C@H]1CN(C)C(=O)c2cc(NC(=O)C3CCCCC3)ccc2OC[C@@H](C)N(Cc2cccnc2)C[C@@H]1C,1.1 ± 0.086
6,C[C@@H]1CCn2cc(nn2)COC[C@H](C)NC1=O,1.06 ± 0.018
7,C[C@@H]1CN([C@@H](C)CO)C(=O)CCCn2cc(nn2)CO[C@@H]1CN(C)S(=O)(=O)c1ccc(-n2cccn2)cc1,1.03 ± 0.037
8,C[C@@H]1C/C=C/C[C@H](c2ccccc2)NC(=O)[C@H](C)N(C)C(=O)c2ccccc2O1.C[C@@H]1C/C=C\C[C@H](c2ccccc2)NC(=O)[C@H](C)N(C)C(=O)c2ccccc2O1,1.008 ± 0.0064
9,C[C@H]1CN([C@@H](C)CO)C(=O)Cc2cc(NC(=O)c3ccncc3)ccc2O[C@H]1CN(C)C(=O)Nc1ccc(F)cc1,0.923 ± 0.21
10,C[C@@H]1CN([C@@H](C)CO)C(=O)CCCn2nncc2CO[C@@H]1CN(C)C(=O)Nc1ccc(-c2cccs2)cc1,1.06 ± 0.048
11,C[C@H](CO)N1C[C@H](C)[C@@H](CN(C)C(=O)Cc2ccccn2)Oc2ncc(-c3cccc(C(=O)N(C)C)c3)cc2C1=O,0.944 ± 0.055
12,CO[C@H]1CC[C@H]2CCOc3c(C#N)cccc3C(=O)N(C)C[C@@H](OC)[C@H](C)C(=O)N(C)C[C@@H]1O2,1.025 ± 0.0061
13,COc1cccc(S(=O)(=O)N2CCCCN3[C@H](C2)[C@@H](c2ccc(C#CCC(C)C)cc2)[C@@H]3CO)c1,0.857 ± 0.061
14,CCCNC(=O)C[C@@H]1CC[C@H]2[C@@H](COc3ccc(NC(=O)CC)cc3C(=O)N2C)O1,1.14 ± 0.029
15,CN1C(=O)c2cc(NC(=O)c3cccc(F)c3)ccc2OC[C@@H]2O[C@H](CC(=O)NCc3ccccc3Cl)CC[C@H]21,1.13 ± 0.036
16,O=C(C1CCOCC1)N1CC(=O)N2[C@H](C1)[C@@H](c1ccc(/C=C/c3ccccc3)cc1)[C@@H]2CO,1.11 ± 0.023
17,O=C(c1cccnc1)N1CC(=O)N2[C@H](CO)[C@@H](c3ccc(-c4ccccc4F)cc3)[C@@H]2C1,1.079 ± 0.008
18,CCCC#Cc1ccc([C@H]2[C@@H](CO)N3C(=O)CN(S(=O)(=O)c4ccccc4C)C[C@@H]23)cc1,0.987 ± 0.039
19,Cc1cccc(-c2ccc([C@H]3[C@@H]4CN(C(=O)c5ccncc5)C[C@H]3N4)cc2)c1,1.05 ± 0.079
20,Cc1ccc(S(=O)(=O)Nc2ccc3c(c2)C(=O)N([C@@H](C)CO)C[C@H](C)[C@@H](CN(C)Cc2ccc(C(F)(F)F)cc2)O3)cc1,1.005 ± 0.0077
21,CO[C@H]1CC[C@@H]2CCOc3ccc(C#N)cc3C(=O)N(C)[C@H](C)C(=O)N(C)C[C@@H]1O2,1.067 ± 0.0011
22,CCNC(=O)C[C@H]1CC[C@@H]2[C@H](COC[C@@H](O)CN2C(=O)c2ccccn2)O1,1 ± 0.081
